Measured values as given in PubChem BioAssay AID488969 (Vanderbilt High Throughput Screening Facility, 2010).
Whole data set: some 110,000 compounds, median “z-score” near -0.1, cut for the highest 2% near 2. The list shows a part of the results. The source made the active and inactive calls.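 The calls were made as follows: active = z-score in the third read window above 3 or below -3; inactive = the rest.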

Molecular target: Metabotropic glutamate receptor 8 (Rattus norvegicus) (UniProt P70579)
Test: rat mGluR8 modulators via GIRK flux, primary screen, cell-based, thallium flux, HTS (AID 488969)
Details: HEK293 rat mGluR8, GIRK (G protein-gated inwardly rectifying potassium channel) thallium flux, FluoZin2; at 10 µM; stronger effect = higher value; submaximal glutamate (EC20) added with thallium

Sequence of UniProt P70579 (P70579 whole entry, looked up): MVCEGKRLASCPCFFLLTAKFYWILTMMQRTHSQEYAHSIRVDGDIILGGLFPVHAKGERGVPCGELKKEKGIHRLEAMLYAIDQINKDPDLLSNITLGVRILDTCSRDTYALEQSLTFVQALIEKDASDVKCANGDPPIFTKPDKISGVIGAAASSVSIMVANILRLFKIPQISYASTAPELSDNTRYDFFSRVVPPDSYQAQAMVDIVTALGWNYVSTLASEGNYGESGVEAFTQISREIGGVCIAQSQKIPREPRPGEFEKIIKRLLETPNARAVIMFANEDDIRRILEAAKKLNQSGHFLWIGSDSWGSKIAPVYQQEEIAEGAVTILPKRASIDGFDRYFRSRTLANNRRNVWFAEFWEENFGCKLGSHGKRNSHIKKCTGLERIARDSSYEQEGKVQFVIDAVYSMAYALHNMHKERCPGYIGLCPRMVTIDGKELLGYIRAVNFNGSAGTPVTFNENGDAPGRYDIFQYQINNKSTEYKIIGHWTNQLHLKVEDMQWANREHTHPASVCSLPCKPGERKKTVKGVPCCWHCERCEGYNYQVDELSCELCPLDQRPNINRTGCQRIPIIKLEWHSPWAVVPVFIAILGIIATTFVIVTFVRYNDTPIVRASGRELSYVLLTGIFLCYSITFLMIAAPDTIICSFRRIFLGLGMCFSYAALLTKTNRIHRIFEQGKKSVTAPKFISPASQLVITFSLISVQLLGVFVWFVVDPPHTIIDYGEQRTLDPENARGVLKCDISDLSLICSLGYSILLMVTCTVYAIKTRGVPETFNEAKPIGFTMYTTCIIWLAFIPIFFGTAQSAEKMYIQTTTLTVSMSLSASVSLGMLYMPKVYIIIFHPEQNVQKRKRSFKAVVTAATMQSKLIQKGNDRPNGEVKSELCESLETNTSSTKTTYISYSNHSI

Row | SMILES | z-score
1 | O=c1cc(-c2ccco2)oc2c1ccc1ccccc12 | -0.164
2 | COc1cc(CCC(=O)Oc2ccc(C(C)=O)cc2)cc(OC)c1OC | -0.72
3 | COc1ccc(-c2noc(CSc3ccccc3)n2)cc1OC | -0.00887
4 | CC(C)C(=O)NS(=O)(=O)c1ccc(N)cc1 | -0.197
5 | CC1CN(C(=O)c2ccncc2)CC(C)O1 (stereo unspecified) | 0.0444
6 | COc1ccc(-c2nc3cc(NC(=S)NC(=O)Cc4ccccc4)ccc3o2)cc1 | 0.594
7 | O=C(Nc1ccc(F)cc1)NC1(C(=O)NCc2ccc3c(c2)OCO3)CCCCC1 | -0.542
8 | COC(=O)COc1ccc(/C=C2/SC(=O)N(CC(=O)N3CCCC3)C2=O)cc1Br | -0.164
9 | O=C(O)c1ccc(CNCc2ccccc2Cl)cc1 | -0.244
10 | COc1ccc(-c2nc(CSCC(=O)N3CCc4ccccc43)c(C)o2)cc1OC | -0.471
11 | CCCCCCCCC(=O)NCCOc1ccccc1 | -0.41
12 | CCC(C)(C)C(=O)Nc1ccc(C(N)=O)cc1 | -0.203
13 | Oc1ccc(/C=N/N=C(c2ccccc2)c2ccccc2)c(O)c1O | -0.213
14 | O=C(NC1CCCCC1)C(c1cccs1)N(C(=O)c1ccco1)c1ccc2c(c1)OCCO2 (stereo unspecified) | -0.214
15 | NS(=O)(=O)c1ccc(NC(=O)COC(=O)CCC2CCCCC2)cc1 | -0.157
16 | Cc1ccc(-c2cc(C(=O)Nc3nccs3)c3ccccc3n2)c(C)c1 | -0.126
17 | Cc1cc(NC(=O)CCNS(=O)(=O)c2cc(Br)cnc2N)ccc1Br | 0.393
18 | CCOC(=O)Cc1c(C)nc2c(-c3ccccc3)c(C)[nH]n2c1=O | 0.059
19 | COc1cc(/C=N\NC(=O)c2ccc(=O)[nH]n2)cc(OC)c1OC | 0.00269
20 | CCOc1cc(/C=N\Nc2nc(Nc3ccccc3)nc(N3CCOCC3)n2)ccc1OC(=O)c1ccco1 | -0.408
21 | CCOc1cc(C)ccc1OCc1nnc(SCC(=O)c2cccc([N+](=O)[O-])c2)n1CC | -0.204
22 | O=c1ccc(S(=O)(=O)N2CCC(Cc3ccccc3)CC2)c[nH]1 | 0.356
23 | Cc1ccc(S(=O)(=O)Cn2nnnc2C(C(C)C)N2CCc3ccccc3C2)cc1 (stereo unspecified) | -0.19

Row | SMILES | z-score
24 | CCOC(=O)Cc1c(C)nc2cc(-c3ccc(Cl)cc3)[nH]n2c1=O | -0.0742
25 | COc1cccc2cc(C(=O)C3=C(O)C(=O)N(CCN(C)C)C3c3ccc(F)cc3)oc12 (stereo unspecified) | 0.329
26 | CON=C1CCN(c2ncc(C(F)(F)F)cc2Cl)CC1 | -0.0727
27 | CCCn1c(NCCO)nc2ccccc21 | -0.0823
28 | O=S(=O)(c1cccs1)N1CCc2ccccc2C1 | -0.297
29 | Oc1nc(Nc2ccc(Cl)cc2Cl)sc1/C=C1\C=Nc2ccccc21 | -0.177
30 | CCOc1ccc(S(=O)(=O)N2CCN(c3ccc(OC)cc3)CC2)c2cccnc12 | -0.846
31 | Cc1ccc(CNC(=O)C(=O)NCCC2=CCCCC2)cc1 | -0.102
32 | COc1ccc(CCN(C(=O)C(F)(F)F)C(C(=O)NC2CCCCC2)c2cccs2)cc1 (stereo unspecified) | -0.557
33 | Cc1ccccc1NC(=O)c1nc[nH]c1C(=O)NCc1ccccc1 | 2.57
34 | Cc1ccccc1N1C(=O)CC(N(O)c2ccccc2)C1=O (stereo unspecified) | -0.314
35 | COc1ccc(-n2cnc(N)c2C(=O)c2cccc([N+](=O)[O-])c2)cc1 | -0.2
36 | CC(=Nc1cccc(C)c1)c1sc2ccccc2c1O | 0.348
37 | COC(=O)c1ccc2c(=O)n3c(nc2c1)SCC(c1ccccc1)=N3 | 0.163
38 | Brc1cccc(-c2nnc(-c3ccccc3)o2)c1 | 0.271
39 | CCC(CC)C(=O)Nc1cccc(C(=O)Nc2nccs2)c1 | -0.197
40 | Cc1nn(CC#N)c(=O)n1-c1ccccc1F | 0.142
41 | Cc1cccc(NC(=O)c2sc3nc(N)c(C#N)cc3c2N)c1 | 0.418
42 | CCn1c(C)c(C(C)=O)c(N2CCN(c3cccc(Cl)c3)CC2)nc1=S | -0.46
43 | O=C(NCc1ccco1)N1c2ccccc2Sc2ccccc21 | -0.113
44 | O=C1CC(c2ccccc2)CN1S(=O)(=O)c1ccccc1 (stereo unspecified) | 0.00794
45 | COc1ccc(OC)c(C(=O)CSc2nnc(Cc3cccs3)n2C)c1 | 0.123
46 | Clc1cccc(-c2cc3nc4c(c(N5CCN(c6cnccn6)CC5)n3n2)CCCC4)c1 | -0.109

Row | SMILES | z-score
47 | COc1ccc(C2SCC(=O)N2c2c(C)n(C)n(-c3ccccc3)c2=O)cc1 (stereo unspecified) | 0.975
48 | O=C(CO/N=C/c1cccc([N+](=O)[O-])c1)Nc1ccc2ccccc2c1 | -0.191
49 | Cc1ccc(SCC(=O)NCCN2C(=O)CSC2=O)cc1C | -0.359
50 | CCNC(=S)NN=C1CCC(C(C)(C)C)CC1 (stereo unspecified) | 0.883
51 | COc1ccc(Cn2c(N)c(C#N)c3nc4ccccc4nc32)cc1OC | -0.144
52 | O=C(Nc1cccnc1Cl)C1c2ccccc2Oc2ccccc21 | -0.112
53 | COCCCn1nnnc1SCC(=O)N1CCCC1 | 0.0657
54 | COc1cc(-c2nc(N)n[nH]2)cc(OC)c1OC | 0.486
55 | NS(=O)(=O)c1ccc(NC(=O)CSc2ccc3ccccc3n2)cc1 | 0.71
56 | Cc1noc(C)c1Cc1ccc(O)cc1 | 0.0375
57 | CN(C)c1cccc2c(S(=O)(=O)N3CCOCC3)cccc12 | 0.189
58 | O=C(CN1C(=O)NC2(CCCCCCC2)C1=O)N1CCc2ccccc2C1 | 0.404
59 | c1ccc2c(c1)NC(c1ccncc1)n1c-2nc2ccccc21 (stereo unspecified) | 0.38
60 | Cc1[nH]nc(-c2ccc(OCc3cnn(-c4ccccc4)c3)cc2O)c1Oc1ccc(F)cc1 | 0.0227
61 | Cc1cc(NC(=O)CCCC(=O)OCC(F)(F)C(F)F)cc(C)c1C(=O)O | 0.0155
62 | CC1(C)Cc2cccc(OCC(O)CN3CCN(c4ccccn4)CC3)c2O1 (stereo unspecified) | -0.193
63 | Clc1cccc(-c2ccnc3nc(-n4cccc4)nn23)c1 | -0.62
64 | CCN(CC)C(=O)Cn1c(=O)n(-c2ccccc2)c(=O)c2c3c(sc21)CCC3 | -0.395
65 | Cc1ccc(-c2nn3c(C)nnc3c3ccccc23)cc1S(=O)(=O)NCc1ccco1 | -0.674
66 | CCOC(=O)c1oc2nc(CC(C)C)c3c(c2c1N)CCC3 | -0.16
67 | Cc1ccc(S(=O)(=O)N2Cc3ccccc3CC2C(=O)Nc2ccc3c(c2)OCO3)cc1 (stereo unspecified) | -0.0374
68 | COc1cc2c(C)nc(C)c(C#N)c2cc1OC | -0.0127
69 | Cc1ccc(C(CCN)c2ccco2)cc1 (stereo unspecified) | 0.345

Row | SMILES | z-score
70 | COc1ccc(S(=O)(=O)N2CCOCC2)cc1C(=O)Nc1ccon1 | -0.151
71 | O=C(CSc1nccn1-c1cccc(Cl)c1)NC1CCCC1 | -0.421
72 | O=C(NCCO)C(F)(F)C(F)(F)C(F)(F)OC(F)(C(=O)NCCO)C(F)(F)F (stereo unspecified) | -0.00196
73 | COc1ccc(/C=N/NC(=O)CN(C2=NS(=O)(=O)c3ccccc32)c2ccccc2)cc1 | -0.0882
74 | O=C(c1cc2ccccc2oc1=O)N(c1ccccc1)C1C=CS(=O)(=O)C1 (stereo unspecified) | 0.129
75 | Cc1c(C(=O)OCC(=O)c2c(N)n(CC(C)C)c(=O)n(C)c2=O)oc2ccccc12 | -0.0376
76 | Fc1ccc2c(c1)C(c1ccncc1)=NNC(c1ccc(Cl)cc1)=N2 | -0.384
77 | Cc1ccc(CN2C3=NCCCN3c3ccccc32)cc1 | active: 3.51
78 | Cc1cccc2cc(C#N)c(SCc3nnc(-c4ccccc4[N+](=O)[O-])o3)nc12 | 0.1
79 | Cc1ccc(C(=O)Nc2ccc(Br)cc2)cc1S(=O)(=O)Nc1ccccn1 | -0.604
80 | CCOc1ccc(S(=O)(=O)NNC(=S)Nc2ccc(Br)cc2)cc1 | -0.268
81 | CC1(C)CC(=O)C(C(=S)Nc2ccc(F)cc2)=C(NCCN2CCOCC2)C1 | -0.128
82 | CCN(CC)S(=O)(=O)c1ccc(N(C)Cc2cccnc2)nc1 | 0.0198
83 | Cc1cc(C)cc(C(=O)N2CC(=O)Nc3ccccc32)c1 | 0.499
84 | COc1ccc(C2=NOC(C(=O)Nc3cc(Br)ccc3O)C2)cc1OC (stereo unspecified) | -0.876
85 | Cc1nc(N2CCN(C(=O)c3ccco3)CC2)c2c3c(sc2n1)CCCC3 | -0.769
86 | COc1ccc(CN2CCC(C(=O)NCCc3ccc(OC)c(OC)c3)CC2)c(OC)c1 | -0.218
87 | O=C(CSc1nc2cc(Cl)ccc2o1)N1CCOCC1 | 0.174
88 | Nn1c(SCC(=O)NC(=O)NCc2ccco2)nnc1-c1ccc(OC(F)F)cc1 | -0.503
89 | N#CC1C(=O)NC(N2CCN(c3ccccc3)CC2)=NC12CCCCC2 (stereo unspecified) | 0.568
90 | O=C(NCCCN1CCOCC1)c1ccc(Cl)s1 | -0.038
91 | O=C(O)CC(=O)Nc1ccccc1 | 0.399
92 | Cc1cc(=O)oc2c(C(=O)/C=C\c3cccs3)c(O)ccc12 | -0.288

Row | SMILES | z-score
93 | CCc1cccc(CC)c1NC(=O)C1SC(=Nc2ccccc2C)C(c2nc3ccccc3s2)=C1N (stereo unspecified) | -0.198
94 | O=C(C1COc2ccccc2O1)N1CCN(c2ccccc2F)CC1 (stereo unspecified) | 0.377
95 | O=C1Cc2ccccc2C(=O)N1Cc1ccccc1 | -0.415
96 | COc1ccc(/C=N/N=C2\SC(CC(=O)O)C(=O)N2c2ccccc2)cc1 (stereo unspecified) | -0.0303
97 | COc1ccc(CNC(=O)COC(=O)[C@H](Cc2c[nH]c3ccccc23)NC(=O)c2cccs2)cc1 | 0.0349
98 | COc1ccc(C(=O)Nc2nccs2)cc1[N+](=O)[O-] | 0.0439
99 | COc1ccc(CSCC(=O)Nc2ccc(S(=O)(=O)N3CCCCCC3)cc2)cc1 | -0.0163
100 | N#CC(C#N)=C/C(C#N)=C(/N)N1CCN(c2ccc(Cl)cc2)CC1 | -0.494
101 | CCN(CC)S(=O)(=O)c1csc(C(=O)OCC(=O)c2ccccc2)c1 | -0.217
102 | CCOC(=O)N1CCC(NC(=O)c2cc(-c3ccc(F)cc3)[nH]c2C)CC1 | -1.17
103 | CC(NC(=O)C12CC3CC(CC(C3)C1)C2)C(=O)NCCN(C)C (stereo unspecified) | -0.0417
104 | CSc1cccc(NC(=O)c2ccc(Cl)nc2)c1 | 0.136
105 | CCCCc1ccc(NC(=S)NN2CCOCC2)cc1 | 0.543
106 | C=CCN1C(=O)C(Cc2ccc(OC)cc2)S/C1=N\N=C\c1cccs1 (stereo unspecified) | -0.136
107 | O=C(Cc1cccc2ccccc12)N/N=C/c1ccc(Sc2cccc3cccnc23)o1 | 1.32
108 | COc1cc(C(=O)N2CCN(C/C=C/c3ccccc3)CC2)cc(OC)c1OC | 0.0718
109 | Cc1ccc(NC(=O)C2C3/C=C\CCCCC32)cc1 (stereo unspecified) | -0.169
110 | CC(C)C(=O)Nc1cccc(-c2cnc3ccccc3n2)c1 | -0.661
111 | Cc1nc2ccccn2c1C(=O)N/N=C/c1cc(C)n(-c2ccc(Br)cc2)c1C | -0.715
